Laboratory results: the antibiotic and cytotoxicity screens of Wong et al. (2023)
Some of the results follow.

system: S. aureus RN4220; assay: growth inhibition call (relative growth <= 0.2); conditions: 50 µM

Growth inhibition call, inactive:
COc1ccc(S(=O)(=O)N(C)C[C@@H]2Oc3c(NC(=O)c4cnccn4)cccc3C(=O)N([C@@H](C)CO)C[C@H]2C)cc1
CO[C@H]1CN(C)C(=O)c2ccc(NS(=O)(=O)CC(F)(F)F)cc2OC[C@H](C)N(C(=O)NC(C)C)C[C@H]1C
CC(C)NC(=O)Nc1cccc2c1O[C@H](CN(C)C(=O)NC1CCCCC1)[C@H](C)CN([C@@H](C)CO)C2=O
C[C@H](CO)N1C[C@H](C)[C@@H](CN(C)Cc2ccc(-c3ccccc3)cc2)Oc2c(NC(=O)Nc3ccc(C(F)(F)F)cc3)cccc2C1=O
Cc1noc(C)c1NC(=O)N(C)C[C@@H]1OCCCC[C@H](C)Oc2ccc(NC(=O)Nc3ccc(F)cc3)cc2C(=O)N([C@H](C)CO)C[C@@H]1C
C[C@H](CO)N1C[C@H](C)[C@H](CN(C)Cc2ccc(Oc3ccccc3)cc2)Oc2c(NC(=O)c3nc4ccccc4s3)cccc2C1=O
COc1ccc(NC(=O)Nc2cccc3c2O[C@@H](CN(C)CC2CCCCC2)[C@@H](C)CN([C@H](C)CO)C3=O)cc1
CC(C(=O)O)c1ccc(N2Cc3ccccc3C2=O)cc1 (stereo not drawn)
CC(C)Cc1ccc(/C=C/C=O)cc1
COC(=O)C1=CO[C@@H](O[C@@H]2O[C@H](CO)[C@@H](O)[C@H](O)[C@H]2O)[C@@H]2[C@@H](C)[C@@H](O)C[C@H]12
CC(C)(C)[S@@](=O)N1Cc2cc(C(=O)NCc3ccc4c(c3)OCO4)nc(-c3cccc(-c4cccnc4)c3)c2[C@H]1CCO
Cc1noc(C)c1NC(=O)Nc1cccc2c1O[C@H](CN(C)S(=O)(=O)c1ccccc1)[C@@H](C)CN([C@@H](C)CO)C2=O
C[C@H](CO)N1C[C@H](C)[C@H](CN(C)C(=O)Nc2ccc3c(c2)OCO3)Oc2ncc(-c3cncnc3)cc2C1=O
Cc1ccc(S(=O)(=O)Nc2ccc3c(c2)C(=O)N([C@H](C)CO)C[C@H](C)[C@@H](CN(C)S(=O)(=O)c2ccc(Cl)cc2)OCCCC[C@H](C)O3)cc1
C[C@@H]1CN([C@H](C)CO)C(=O)c2cc(NC(=O)C3CC3)ccc2O[C@H]1CN(C)Cc1ccc(C(=O)O)cc1
C[C@@H]1CCCCO[C@H](CN(C)C(=O)NC2CCCCC2)[C@@H](C)CN([C@@H](C)CO)C(=O)c2cc(NC(=O)CCC(F)(F)F)ccc2O1
C[C@H]1CN([C@@H](C)CO)C(=O)c2cc(NS(=O)(=O)c3cccs3)ccc2O[C@@H]1CN(C)S(=O)(=O)c1cccs1
COc1ccc2c3c([nH]c2c1)[C@H](CO)N(C[C@]13CN(C1)S(=O)(=O)c1cn(cn1)C)C(=O)Nc1ccc(cc1)F
